Experimental data reported in PubChem BioAssay (NCATS).
Where “and” joins values, the source holds several entries; their conditions need not be identical. Identical values can stand only once. Inconclusive means that the source gave no clear call. Such entries were picked first, then a sample of the others. For part of these data: Where the call is inconclusive, the potency comes from a doubtful curve fit. Calls of active or inactive are those of the source. Unless noted, the call rests on the fitted dose curve; in most records, active means well fitted curve in the direction sought with a large enough effect; inconclusive means small, poorly fitted or top-dose-only effect, or another doubt; inactive means no such curve, though single readings can be large; an effect the other way counts as inactive or inconclusive.

Experiments:
[1] = Primary qHTS for small molecule stabilizers of the endoplasmic reticulum resident proteome: Secreted ER Calcium Modulated Protein (SERCaMP) assay (AID 1508630); conditions: SH-SY5Y GLuc-SERCaMP (Gaussia luciferase released on ER calcium loss) secretion, thapsigargin, luminescence; series mostly up to 38.4 µM; further: potency means the concentration at half of the fitted maximal effect
Outline: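 The SH-SY5Y reporter protocol was run at 3 concentrations up to 38.3 uM (primary) or 11 concentrations (follow-up): 16 h compound, 100 nM thapsigargin for 4 h, then extracellular luciferase luminescence.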

[2] = target: Cytochrome P450 2C9 (Homo sapiens) (UniProt P11712); assay: Cytochrome P450 family 2 subfamily C member 9 (CYP2C9) small molecule antagonists: luciferase biochemical (cell-free) qHTS assay (AID 1645842; active means well fitted curve in the direction sought with a large enough effect in the repeat runs; inconclusive means weak or mixed curves; inactive means no such curve, though single readings can be large; an effect the other way counts as inactive or inconclusive; further: nearly all actives have a fitted effect of over 55% in size; further: potency means the concentration at half of the fitted maximal effect)
Outline: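 P450-Glo CYP2C9 system: proluciferin substrate with enzyme in mix containing 0.4% BSA, 10 min at room temperature, then NADPH regeneration solution added and incubated 1 h at 37C. Detection reagent stopped reaction; luminescence read after 20 min as RLU.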

[3] = target: N-terminal Xaa-Pro-Lys N-methyltransferase 1 (Homo sapiens) (UniProt Q9BV86); assay: Confirmatory qHTS for Inhibitors of N-terminal methyltransferase 1 (NTMT1): MTaseGlo Assay (AID 1645874); further: nearly all actives have a fitted effect of over 65% in size; further: potency means the concentration at half of the fitted maximal effect
Outline: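 MTase-Glo luminescence measured SAH formed by 125 nM NTMT1 from 100 uM SAM and 1 uM SPKRIA peptide over 30 min at room temperature, following 15 min compound preincubation. Percent inhibition against no-enzyme and DMSO controls gave 4-parameter Hill fits.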

[4] = Primary qHTS for inhibitors of nuclear receptor binding SET domain protein 2 (NSD2) in an isogenic RCH-ACV NSD2 p.E1099K mutant (9B) (AID 1645876); further: potency means the concentration at half of the fitted maximal effect; nearly all actives have a fitted effect of over 70% in size
[5] = Primary qHTS for inhibitors of nuclear receptor binding SET domain protein 2 (NSD2) in an RCH-ACV wild type WT cells (2C) (AID 1645877); conditions: activity change, negative = cell killing: at 44.9 µM (top of the series) unless noted; further: nearly all actives have a fitted effect of over 70% in size; further: potency means the concentration at half of the fitted maximal effect
[6] = A High-Content qHTS Against Drug Library for the Identification of Small Molecules that Inhibit DYT1 Early Onset Primary Dystonia-Associated Cell Pathology (AID 1645839; calls by dose curve; further: potency means the concentration at half of the fitted maximal effect)
Outline: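 Cells were seeded and left for 24 h, then dosed with compound alongside tetracycline induction of mutant EGFP-TorsinA. They were incubated for 48 h, fixed in 4% paraformaldehyde, permeabilized and imaged for mislocalization (%pathology) and cell count.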

[7] = target: Cytochrome P450 2D6 (Homo sapiens) (UniProt P10635); assay: Cytochrome P450 family 2 subfamily D member 6 (CYP2D6) small molecule antagonists: luciferase biochemical (cell-free) qHTS assay (AID 1645840; active means well fitted curve in the direction sought with a large enough effect in the repeat runs; inconclusive means weak or mixed curves; inactive means no such curve, though single readings can be large; an effect the other way counts as inactive or inconclusive; further: nearly all actives have a fitted effect of over 55% in size; further: potency means the concentration at half of the fitted maximal effect)
Outline: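 P450-Glo CYP2D6 system: proluciferin substrate converted by enzyme to luciferin, read by luminescence proportional to activity. Enzyme-substrate mix with compound 10 min at room temperature, then NADPH regeneration 1 h before detection reagent.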

Papain (Carica papaya) = Papain (Carica papaya) (UniProt P00784); assay: Primary qHTS assay for inhibitors of the protease papain (AID 1645873);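 further: papain turnover of Z-FR-AMC read as the AMC fluorescence gain over 10 min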; further: potency means the concentration at half of the fitted maximal effect
[8] = target: Rap guanine nucleotide exchange factor 3 (Homo sapiens) (UniProt O95398); assay: Confirmatory qHTS for antagonist of cAMP-regulated guanine nucleotide exchange factor 3 (EPAC1) (AID 1645880); further: potency means the concentration at half of the fitted maximal effect; nearly all actives have a fitted effect of over 55% in size
Outline: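 Released BODIPY-GDP fluoresces less than Rap1-bound BODIPY-GDP; the signal is followed at 480/540 nm at 5-min intervals over 30 min, after 5 min at room temperature. Reactions contain 100 nM EPAC1, 250 nM RAP1B-BODIPY-GDP and 50 uM GDP; results are normalized to ATA and DMSO.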

[9] = target: Rap guanine nucleotide exchange factor 3 (Homo sapiens) (UniProt O95398); assay: Confirmatory qHTS for agonist of cAMP-regulated guanine nucleotide exchange factor 3 (EPAC1) (AID 1645881); further: potency means the concentration at half of the fitted maximal effect; nearly all actives have a fitted effect of over 75% in size
[10] = target: Rap guanine nucleotide exchange factor 4 (Homo sapiens) (UniProt Q8WZA2); assay: Confirmatory qHTS for agonist of cAMP-regulated guanine nucleotide exchange factor 4 (EPAC2) (AID 1645884); conditions: EPAC2 GEF activity, Rap1B-BODIPY-GDP fluorescence;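 further: nucleotide exchange releases bodipy-GDP from Rap1 and this lowers its fluorescence; potency means the concentration at half of the fitted maximal effect; nearly all actives have a fitted effect of over 65% in size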
[11] = target: Cytochrome P450 3A4 (Homo sapiens) (UniProt P08684); assay: Cytochrome P450 family 3 subfamily A member 4 (CYP3A4) small molecule antagonists: luciferase qHTS assay (AID 1645841; active means well fitted curve in the direction sought with a large enough effect in the repeat runs; inconclusive means weak or mixed curves; inactive means no such curve, though single readings can be large; an effect the other way counts as inactive or inconclusive; further: nearly all actives have a fitted effect of over 45% in size)
Outline: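 P450-Glo CYP3A4 enzyme with proluciferin substrate preincubated 10 min with compound at room temperature, then NADPH regeneration 1 h. Luciferin detection reagent added for 20 min; luminescence recorded. Ketoconazole positive control.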

[12] = NCATS anti-infectives library activity on HEK293 viability as a counter-qHTS vs the C. elegans viability qHTS (AID 1745854); further: potency means the concentration at half of the fitted maximal effect
Outline: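 CellTiter-Glo luminescence, read on a CCD imager, scored viability of HEK293 cells after 24 hr compound exposure at 37C. Library tested in several concentrations, 1:5 steps, up to 41.7 uM; digitonin served as control.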
Tags describe the fitted curve by direction and shape.

Sequence of UniProt P00784 (P00784 whole entry, looked up): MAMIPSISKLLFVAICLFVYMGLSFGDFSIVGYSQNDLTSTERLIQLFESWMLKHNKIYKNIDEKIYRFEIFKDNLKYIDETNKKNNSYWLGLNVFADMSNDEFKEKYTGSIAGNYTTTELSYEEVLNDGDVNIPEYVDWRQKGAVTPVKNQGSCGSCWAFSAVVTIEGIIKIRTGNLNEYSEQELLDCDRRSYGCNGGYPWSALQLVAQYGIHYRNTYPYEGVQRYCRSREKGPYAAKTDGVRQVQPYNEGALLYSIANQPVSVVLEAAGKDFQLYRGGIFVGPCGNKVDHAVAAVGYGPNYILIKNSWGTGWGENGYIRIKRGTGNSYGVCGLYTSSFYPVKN
Sequence of UniProt P10635 (P10635 whole entry, looked up): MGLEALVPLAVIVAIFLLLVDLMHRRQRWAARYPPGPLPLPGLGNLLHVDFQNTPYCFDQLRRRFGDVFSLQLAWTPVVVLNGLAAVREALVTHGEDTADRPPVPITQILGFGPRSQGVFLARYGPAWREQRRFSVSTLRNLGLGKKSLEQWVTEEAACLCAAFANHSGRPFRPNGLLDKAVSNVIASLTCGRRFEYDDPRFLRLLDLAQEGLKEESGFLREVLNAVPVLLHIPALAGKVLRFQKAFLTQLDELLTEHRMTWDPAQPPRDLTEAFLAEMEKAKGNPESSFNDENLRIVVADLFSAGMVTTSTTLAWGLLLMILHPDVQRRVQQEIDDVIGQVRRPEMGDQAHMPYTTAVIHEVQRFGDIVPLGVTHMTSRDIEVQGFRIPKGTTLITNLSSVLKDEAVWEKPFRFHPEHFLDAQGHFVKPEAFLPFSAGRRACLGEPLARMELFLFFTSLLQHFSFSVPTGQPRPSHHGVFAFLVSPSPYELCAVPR
Sequence of UniProt P11712 (P11712 whole entry, looked up): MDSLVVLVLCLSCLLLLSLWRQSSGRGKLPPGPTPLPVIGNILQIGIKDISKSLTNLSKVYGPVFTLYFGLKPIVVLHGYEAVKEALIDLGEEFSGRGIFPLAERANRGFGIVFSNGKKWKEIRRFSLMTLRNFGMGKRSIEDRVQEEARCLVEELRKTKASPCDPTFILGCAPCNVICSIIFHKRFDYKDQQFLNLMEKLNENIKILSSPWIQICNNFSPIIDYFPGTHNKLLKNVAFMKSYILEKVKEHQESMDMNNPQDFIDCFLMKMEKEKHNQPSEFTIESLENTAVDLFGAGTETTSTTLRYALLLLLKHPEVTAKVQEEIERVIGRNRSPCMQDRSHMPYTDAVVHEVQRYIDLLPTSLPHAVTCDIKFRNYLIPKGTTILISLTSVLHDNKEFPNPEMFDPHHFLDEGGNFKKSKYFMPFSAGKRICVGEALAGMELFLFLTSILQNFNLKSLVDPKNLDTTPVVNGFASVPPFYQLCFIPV
Sequence of UniProt Q9BV86 (Q9BV86 whole entry, looked up): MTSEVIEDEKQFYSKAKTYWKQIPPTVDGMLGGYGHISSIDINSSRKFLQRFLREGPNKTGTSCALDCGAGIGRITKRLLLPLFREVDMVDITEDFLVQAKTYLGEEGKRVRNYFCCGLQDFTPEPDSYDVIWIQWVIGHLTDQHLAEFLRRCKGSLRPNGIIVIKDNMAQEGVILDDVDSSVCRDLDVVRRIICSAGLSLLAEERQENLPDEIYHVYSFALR
Sequence of UniProt O95398 (O95398 whole entry, looked up): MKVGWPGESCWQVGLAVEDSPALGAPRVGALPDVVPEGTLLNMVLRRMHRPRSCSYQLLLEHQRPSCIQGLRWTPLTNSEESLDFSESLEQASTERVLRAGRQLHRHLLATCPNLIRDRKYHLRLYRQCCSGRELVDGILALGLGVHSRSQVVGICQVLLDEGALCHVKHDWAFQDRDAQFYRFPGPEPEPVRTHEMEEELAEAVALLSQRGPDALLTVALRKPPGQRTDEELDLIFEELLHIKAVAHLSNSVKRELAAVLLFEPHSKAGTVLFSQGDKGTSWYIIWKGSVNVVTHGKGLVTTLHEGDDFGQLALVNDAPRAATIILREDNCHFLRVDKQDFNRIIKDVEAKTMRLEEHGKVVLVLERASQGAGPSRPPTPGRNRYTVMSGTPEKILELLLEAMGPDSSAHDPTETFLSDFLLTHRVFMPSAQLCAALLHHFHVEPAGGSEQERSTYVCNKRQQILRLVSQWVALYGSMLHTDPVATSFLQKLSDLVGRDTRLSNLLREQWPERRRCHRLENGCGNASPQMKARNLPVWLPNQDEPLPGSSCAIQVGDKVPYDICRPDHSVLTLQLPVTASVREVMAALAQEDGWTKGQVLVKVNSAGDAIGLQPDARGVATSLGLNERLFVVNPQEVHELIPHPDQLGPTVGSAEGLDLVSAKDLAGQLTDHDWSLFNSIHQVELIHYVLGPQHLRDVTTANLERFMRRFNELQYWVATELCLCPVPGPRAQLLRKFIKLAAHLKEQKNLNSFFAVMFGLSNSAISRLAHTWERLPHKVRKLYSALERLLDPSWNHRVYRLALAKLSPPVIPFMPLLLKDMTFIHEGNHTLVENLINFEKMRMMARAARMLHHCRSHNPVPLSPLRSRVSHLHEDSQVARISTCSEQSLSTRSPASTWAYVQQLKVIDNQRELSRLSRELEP
Sequence of UniProt Q8WZA2 (Q8WZA2 whole entry, looked up): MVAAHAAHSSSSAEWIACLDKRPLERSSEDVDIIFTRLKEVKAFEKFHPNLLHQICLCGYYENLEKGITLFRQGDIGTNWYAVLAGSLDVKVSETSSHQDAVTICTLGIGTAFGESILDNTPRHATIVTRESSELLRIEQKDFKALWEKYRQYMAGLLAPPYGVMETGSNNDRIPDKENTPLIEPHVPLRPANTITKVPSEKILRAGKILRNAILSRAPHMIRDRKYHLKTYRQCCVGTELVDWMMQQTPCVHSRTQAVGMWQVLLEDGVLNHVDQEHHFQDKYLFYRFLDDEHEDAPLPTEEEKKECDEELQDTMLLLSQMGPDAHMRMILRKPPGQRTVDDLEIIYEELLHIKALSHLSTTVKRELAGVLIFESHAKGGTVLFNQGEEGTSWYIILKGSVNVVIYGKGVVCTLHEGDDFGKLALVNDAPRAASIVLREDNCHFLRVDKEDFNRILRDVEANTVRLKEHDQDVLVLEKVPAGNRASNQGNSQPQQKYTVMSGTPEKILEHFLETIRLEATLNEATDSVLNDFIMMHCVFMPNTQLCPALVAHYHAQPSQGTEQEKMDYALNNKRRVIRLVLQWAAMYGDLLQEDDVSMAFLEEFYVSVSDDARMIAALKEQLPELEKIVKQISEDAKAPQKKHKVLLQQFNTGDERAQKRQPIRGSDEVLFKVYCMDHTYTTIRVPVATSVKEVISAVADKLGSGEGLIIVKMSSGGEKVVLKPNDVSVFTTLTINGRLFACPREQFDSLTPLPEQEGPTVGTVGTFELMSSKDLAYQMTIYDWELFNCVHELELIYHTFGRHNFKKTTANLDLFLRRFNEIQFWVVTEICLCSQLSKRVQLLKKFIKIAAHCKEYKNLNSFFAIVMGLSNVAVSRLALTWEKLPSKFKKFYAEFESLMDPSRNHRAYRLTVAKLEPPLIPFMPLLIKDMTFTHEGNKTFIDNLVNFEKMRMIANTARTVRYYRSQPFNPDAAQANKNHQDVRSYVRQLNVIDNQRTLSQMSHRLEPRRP
Sequence of UniProt P08684 (P08684 whole entry, looked up): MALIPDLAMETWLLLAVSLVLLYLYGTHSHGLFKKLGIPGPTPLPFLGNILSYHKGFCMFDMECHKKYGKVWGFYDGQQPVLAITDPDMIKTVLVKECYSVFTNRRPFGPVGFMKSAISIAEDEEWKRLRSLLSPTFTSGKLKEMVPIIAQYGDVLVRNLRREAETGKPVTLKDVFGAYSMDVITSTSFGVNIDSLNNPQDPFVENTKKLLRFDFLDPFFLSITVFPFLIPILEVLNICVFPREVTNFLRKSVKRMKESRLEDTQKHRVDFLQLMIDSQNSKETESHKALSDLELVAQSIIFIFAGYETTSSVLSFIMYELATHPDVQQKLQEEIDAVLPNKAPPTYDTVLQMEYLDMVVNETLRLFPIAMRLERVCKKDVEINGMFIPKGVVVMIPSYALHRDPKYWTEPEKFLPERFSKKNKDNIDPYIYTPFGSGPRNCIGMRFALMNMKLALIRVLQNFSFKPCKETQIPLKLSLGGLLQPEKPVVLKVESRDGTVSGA

With `CC(CN(C)C)C(C)(O)Cc1ccc(Cl)cc1` (stereo not drawn) the Potency [1] was inconclusive: 31.6 µM [inhibitor, partial curve] and the Potency [2] was “inactive”.
For `CCc1cc(C(N)=S)ccn1`, the Potency [1] was inconclusive: 31.6 µM [inhibitor, partial curve, poor fit], the Potency [3] was “inactive” and the Potency [4] was inconclusive: 33.5 µM [inhibitor, single point]. For the same compound, the Potency [5] was inconclusive: 26.6 µM [inhibitor, single point].
For `CC(C)(C)CC(C)(C)c1ccc(O)c(Cc2ccc(Cl)cc2Cl)c1`, the Potency [6] was inconclusive: 7.08 µM [inhibitor, partial curve, poor fit] and the Potency [5] was inconclusive: 8.41 µM [inhibitor, partial curve, poor fit].
With `O=c1n(CCCN2CCN(c3cccc(Cl)c3)CC2)nc2ccccn12` the Potency [6] was “inactive”, the Potency [7] was inconclusive: 12.3 µM [inhibitor, partial curve] and the Potency (Papain (Carica papaya)) was inconclusive: 12.6 µM [inhibitor, partial curve, poor fit]. The Potency [4] was inconclusive: 26.6 µM [inhibitor, partial curve, poor fit].
With `OCc1ccccc1O` the Potency [1] was inconclusive: 10 µM [inhibitor, partial curve, poor fit] and the Potency [5] was “inactive”.
In the case of `COc1cc(OC)cc(OC)c1`, the Potency [6] is reported as “inactive”.
With `CCCCOc1ccc(C(=O)CCN2CCCCC2)cc1` the Potency [6] was active: 10 µM, the Potency [2] was inconclusive: 27.5 µM [inhibitor, single point] and the Potency [4] was active: 15 µM.
With `C[C@H]1O[C@@H](O[C@H]2CC[C@@]3(C)[C@H](CC[C@@H]4[C@@H]3C[C@@H](O)[C@]3(C)[C@@H](C5=CC(=O)OC5)CC[C@]43O)C2)C[C@H](O)[C@@H]1O[C@H]1C[C@H](O)[C@H](O[C@H]2C[C@H](O)[C@H](O[C@@H]3O[C@H](CO)[C@@H](O)[C@H](O)[C@H]3O)[C@@H](C)O2)[C@@H](C)O1` the Potency [6] was inconclusive: 0.891 µM [inhibitor, full curve, poor fit] and the Potency [7] was “inactive”.
In the case of `NC(=O)NO`, the Potency [6] is reported as “inactive” and the Potency [5] is reported as “inactive”.
With `Cc1cc(N)c2cc(NC(=O)Nc3ccc4nc(C)cc(N)c4c3)ccc2n1` the Potency [6] was inconclusive: 35.5 µM [inhibitor, single point], the Potency [4] was inconclusive: 33.5 µM [inhibitor, single point] and the Potency [5] was inconclusive: 29.9 µM [inhibitor, single point]. The Potency [8] was active: 25 µM, the Potency [9] was inconclusive: 25.1 µM [activator, full curve] and the Potency [10] was active: 25.1 µM.
With `CC(=O)O[C@]1(C(C)=O)CC[C@H]2[C@@H]3C[C@H](C)C4=CC(=O)CC[C@]4(C)[C@H]3CC[C@@]21C` the Potency [6] was inconclusive: 35.5 µM [inhibitor, single point], the Potency [11] was “inactive” and the Potency [4] was inconclusive: 1.68 µM [inhibitor, partial curve]. For the same compound, the Potency [5] was inconclusive: 841 nM [inhibitor, partial curve] and inconclusive: 1.66 µM [inhibitor, full curve].
In the case of `COc1cccc2c(NCc3ccccc3)nc(-n3c(N)nc4ccccc43)nc12`, the Potency [1] is reported as “inactive” and the Potency [12] is reported as active: 7.08 µM.
With `O=C(CCCCCCC(=O)Nc1ccc([C@H]2O[C@@H](CSc3nc(-c4ccccc4)c(-c4ccccc4)o3)C[C@@H](c3ccc(CO)cc3)O2)cc1)NO` the Potency [1] was inconclusive: 0.119 µM [inhibitor, full curve, poor fit] and the Potency [5] was active: 2.58 µM and active: 4.28 µM.
For `CC/C(=C(\c1ccccc1)c1ccc(OCCN(C)C)cc1)c1ccccc1`, the Potency [6] was active: 11.2 µM, the Potency (Papain (Carica papaya)) was “inactive” and the Potency [3] was inconclusive: 31.6 µM [inhibitor, partial curve]. For the same compound, the Potency [4] was inconclusive: 33.5 µM [inhibitor, single point] and the Potency [5] was inconclusive: 21.1 µM [inhibitor, single point].
With `C1CCC(C(CC2CCCCN2)C2CCCCC2)CC1` (stereo not drawn) the Potency [6] was inconclusive: 7.08 µM [inhibitor, partial curve, poor fit], the Potency [7] was active: 0.138 µM and the Potency [2] was inconclusive: 34.7 µM [inhibitor, single point]. The Potency [3] was inconclusive: 39.8 µM [inhibitor, partial curve], the Potency [4] was inconclusive: 33.5 µM [inhibitor, single point] and active: 7.42 µM and the Potency [5] was inconclusive: 33.5 µM [inhibitor, single point]. The Potency [12] was active: 15.8 µM.
